Test results as given in the supplement of paper PMC3334620.
Over roughly 33,000 sequences, “E-score (-0.5 to 0.5)” has its median near -0.04; the highest 2% begin near 0.36. The list shows a part of the results.

Each sequence was assayed against T1, Hmlalpha2 (UniProt P0CY09) (assay: PBM E-score (8-mer binding enrichment) (E-score (-0.5 to 0.5)); higher = stronger / more preferred TF binding; most listed sequences are background and not binding sites). Conditions: protein concentration: 200 nM; construct: GST-full length.
T1 sequence: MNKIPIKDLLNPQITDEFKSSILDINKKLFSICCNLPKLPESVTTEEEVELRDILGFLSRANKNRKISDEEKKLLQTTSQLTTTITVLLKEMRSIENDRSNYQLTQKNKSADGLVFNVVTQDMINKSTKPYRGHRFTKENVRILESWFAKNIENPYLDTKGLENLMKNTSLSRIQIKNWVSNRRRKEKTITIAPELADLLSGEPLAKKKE
Procedure, shortened: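 Masliner-normalised scans of fluorescent anti-GST signal were the basis for scoring. That signal came from GST-tagged yeast transcription factors applied at about 100-200 nM to double-stranded universal all-10-mer Agilent arrays on fresh or once-stripped slides. Each ungapped eight-base word, pooled with its reverse complement, received an E-score from the Universal PBM Analysis Suite.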

Sequence | PBM E-score
GCGCGCGC | 0.164
GGCCCTAC | -0.351
GACCCCTC | -0.308
GACCACAC | 0.0249
CCTGAAAG | -0.0265
AGGCAACG | -0.0748
GATTGGTA | 0.00817
CCTTCTCA | -0.313
CTTTGTGA | 0.00029
CGGAAGTC | -0.243
AGCTTTGA | 0.0034
AAAGAGTA | 0.0826
ACCCGGCC | -0.25
AATATATT | 0.308
CTTGAACC | 0.0262
TCACAGAA | 0.0165
GACAGCCA | -0.131
ACAATATG | 0.183
CCATAAAA | -0.00897
ACATCACC | 0.103
AACGCCTG | 0.0666
CACTTACG | 0.134

Sequence | PBM E-score
GCCAGTGA | -0.215
CGCTGAAC | 0.0561
AACGACGC | 0.184
ACTCTCCA | -0.166
ATCCCTTC | -0.192
CGCCCAAA | 0.065
CAACCCGC | -0.0126
AATTCTTG | 0.12
AGTCGCAC | -0.178
AGTGAGTG | -0.0617
CGATTCCC | -0.0709
AGCCGCCC | -0.109
CTATACTC | -0.145
CTCGCGGC | -0.167
CGTGTAGC | 0.344
CCGAACAG | -0.14
ACTCTAAC | 0.0745
GATGAATC | -0.0427
ACAAAATA | 0.158
ATTGTAGC | 0.0451
CATATCAC | 0.131
AGGTATCA | -0.112

Sequence | PBM E-score
ATCTATCC | -0.202
CCCACTCA | -0.134
CATCGTAG | -0.069
CCTAGTTA | 0.0614
ACGCTTAC | 0.0906
GGACCAAA | -0.0464
GGCCATAC | -0.138
ACGAGTCC | -0.0991
ACTAAGAA | 0.0526
AGGAACAA | -0.0757
TACATTGA | 0.35
AGTTCGGC | -0.0823
TATGAGGA | -0.0382
TATCCCAA | 0.0522
ACGTTACG | 0.264
AGACTTAG | -0.152
GTAACCCA | 0.214
ACGACACG | 0.353
TCCCGAGA | -0.229
GCACAAGA | -0.0559
AGCTTTCG | -0.139
CAAGGTCC | -0.193

Sequence | PBM E-score
ACCAACGA | -0.0432
GTCACCAC | -0.0983
CTTTGGAC | -0.0148
CAAGCCTA | 0.0737
ATTCTCGG | -0.0411
CCAGGGTA | -0.192
CACTAGCG | -0.0565
GCGGGCTA | -0.197
CCGTACTA | -0.127
ACGAGCAT | 0.02
AAACCCCG | 0.0184
GATTACTA | 0.213
TCGACGCA | 0.0175
CATTAAGC | -0.0386
CTGTCATC | -0.158
GTATATAC | 0.155
AAACTCCG | -0.0306
ACCTTTAA | 0.0867
AAATGAGG | -0.104
GCCTCGCC | -0.213
